# Measurements: PMC6919601, “Identification of Plasmodium dipeptidyl aminopeptidase allosteric inhibitors by high throughput screening” (PLoS ONE, 2019)
# The campaign covered roughly 110,000 compounds. About 230 (0.21%) showed an effect of 50% or more. Some of the results follow.
# Biological target: DPAP1 (Plasmodium falciparum, UniProt Q8IIJ9)
# Assay: primary screen, percent inhibition; read by cleavage of a fluorogenic dipeptide substrate; higher = more effect of the substance
# Design: species or system P. falciparum D10 trophozoite lysates; single well
# 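Note: 30 min substrate incubation versus DMSO and 10 µM JCP410 controls.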
# DPAP1, sequence (Q8IIJ9 whole entry, looked up): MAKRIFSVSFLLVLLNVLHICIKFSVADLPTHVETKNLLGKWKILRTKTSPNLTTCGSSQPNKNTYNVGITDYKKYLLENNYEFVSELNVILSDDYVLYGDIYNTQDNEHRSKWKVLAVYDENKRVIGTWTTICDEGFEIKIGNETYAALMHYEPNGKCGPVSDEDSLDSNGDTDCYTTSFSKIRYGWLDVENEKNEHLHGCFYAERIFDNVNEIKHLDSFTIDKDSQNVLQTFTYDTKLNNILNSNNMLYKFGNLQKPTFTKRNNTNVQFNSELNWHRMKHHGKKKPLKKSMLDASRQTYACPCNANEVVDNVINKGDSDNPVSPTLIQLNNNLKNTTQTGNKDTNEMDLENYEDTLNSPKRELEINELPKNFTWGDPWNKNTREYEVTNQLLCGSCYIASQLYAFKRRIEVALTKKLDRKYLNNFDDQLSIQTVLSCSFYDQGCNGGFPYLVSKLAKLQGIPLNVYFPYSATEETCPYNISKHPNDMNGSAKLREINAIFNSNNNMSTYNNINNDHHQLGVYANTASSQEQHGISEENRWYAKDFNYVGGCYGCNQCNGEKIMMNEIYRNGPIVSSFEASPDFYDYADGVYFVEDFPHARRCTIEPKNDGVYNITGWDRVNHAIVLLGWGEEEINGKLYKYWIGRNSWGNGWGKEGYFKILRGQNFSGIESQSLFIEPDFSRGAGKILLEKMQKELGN
row,SMILES,% Inhibition @ 10 uM [%]
1,Cc1cc(-c2ccc(Cl)cc2)nc2cc(C(=O)O)nn12,0.316
2,Cc1oc(-c2cccs2)nc1CSc1nc2ncccc2o1,-3.15
3,CC(Oc1ccc(Cl)cc1Cl)C(=O)Nc1ccc(S(=O)(=O)N2CCOCC2)cc1 (stereo not shown),-0.511
4,CC(=O)Nc1ccc(NC(=O)Cc2ccc(F)cc2)cc1,-0.318
5,CC1CCN(S(=O)(=O)c2cccc(C(=O)NCc3ccco3)c2)CC1,-10.4
6,CCOC(=O)c1[nH]c2ccccc2c1NC(=O)c1cccc2ccccc12,3.49
7,c1ccc2c(c1)NC(CN1CCOCC1)CO2 (stereo not shown),2.99
8,CCC/N=C/c1c(C)nn(-c2ccc(C)c(C)c2)c1O,0.0719
9,COc1ccc(C(=O)Nc2ccc(S(=O)(=O)N(C)Cc3ccccc3)cc2)cc1,-2.66
10,CC(NC(=O)C1CCCN1S(=O)(=O)c1ccccc1)c1ccccc1 (stereo not shown),-3.04
11,COc1cccc(-c2nc(CS(=O)(=O)CC(=O)NCc3ccc4c(c3)OCO4)c(C)o2)c1,-1.89
12,COc1cccc(C2C(C(=O)Nc3ccccc3)=C(C)N=c3s/c(=C\c4ccncc4)c(=O)n32)c1 (stereo not shown),-4.59
13,CCCCN(C)CCCNC(=O)C1CCCN(S(=O)(=O)N2CCOCC2)C1 (stereo not shown),-5.93
14,O=C(C1CCN(S(=O)(=O)c2ccc(Cl)cc2)CC1)N1CCOCC1,-1.22
15,COC(=O)c1c(C)nn(-c2ccccc2)c1NC(=O)C(C)Oc1ccc(Cl)cc1 (stereo not shown),-3.41
16,COc1ccccc1C(=O)N1CCN(S(C)(=O)=O)CC1,-1.6
17,Cc1onc(-c2ccccc2Cl)c1C(=O)n1nnc2ccccc21,0.518
18,CCC(Sc1nc(C)cc(C)n1)C(=O)NC(C)c1ccccc1 (stereo not shown),-5.51
19,COc1ccc(OC)c(C2c3[nH]c4ccccc4c3CCN2C(C)=O)c1 (stereo not shown),-0.446
20,COc1ccc(C2(C(=O)N3CCCCC3)CCOCC2)cc1,-7.33
21,CSc1ccc(CN2CCN(Cc3ccccc3C)CC2)cc1,3.05
22,CC(CCc1ccccc1)NC(=O)COCc1cc(-c2ccc(F)cc2)on1 (stereo not shown),-6.73
23,Cc1cccc2c(O)c(NC(=O)N3CC(C)CC(C)C3)cnc12 (stereo not shown),-2.84
24,COc1ccc(CCNC(=O)Cc2c(C)c3c(OC)cc(OC)cc3oc2=O)cc1,-4.39
25,N#CCNC(=O)C(Cc1ccccc1C(F)(F)F)NC(=O)OCc1ccccc1 (stereo not shown),-5.2

row,SMILES,% Inhibition @ 10 uM [%]
1,C=CCn1c(=N)c(C(=O)NCC2CCCO2)cc2c(=O)n3ccccc3nc21 (stereo not shown),-1.47
2,CC1=C(C(=O)N2CCN(Cc3ccc4c(c3)OCO4)CC2)C2(CCC(C)CC2)OC1=O (stereo not shown),3.19
3,CCc1cc2c(N3CCCCCC3)ncnc2s1,-4.05
4,CC1(C)OC(=O)C2(C(=O)O1)C1C3C4CC5C6C4C1C6C2C53 (stereo not shown),2.5
5,O=C1CN=C(c2ccccc2)c2cc(Br)ccc2N1,-11.2
6,COCCCNC(=O)NC1CCCN(S(=O)(=O)c2ccc(C)cc2)C1 (stereo not shown),0.635
7,CCOC(=O)c1c(CSc2ccsc2)n(C)c2cc(Br)c(O)c(CN(C)C)c12,-1.47
8,CC1=C(C(=O)Nc2ccccc2C)C(c2ccccc2C)C2=C(O)CCCC2=N1 (stereo not shown),2.38
9,O=C(CN1CC(=O)N2CCCC2C1=O)NCc1cccs1 (stereo not shown),-5.05
10,CCCCCOc1ccc(CN2CCOCC2)cc1Cl,-4.23
11,CN(CCc1ccccc1)Cc1cccc(O)c1,3.35
12,CNS(=O)(=O)c1cn(CC(=O)Nc2cccnc2)cc1S(=O)(=O)NC,-7.87
13,CCOc1ccccc1N(CC(=O)NCc1ccncc1)S(C)(=O)=O,1.02
14,Cc1noc(/C=C/c2cccs2)c1S(=O)(=O)N1CCCC(C(=O)N2CCC(C)CC2)C1 (stereo not shown),-1.66
15,CCOc1ccc(-c2nnc(SCC(=O)N3CCC(C)CC3)o2)cc1,5.56
16,CC(C)C[C@H](NC(=O)c1ccc(-c2ccc3[nH]ccc3c2)cc1)C(=O)NCC#N,-3.04
17,CCOC(=O)c1cc2c(=O)n3ccccc3nc2n(CCOC)/c1=N\C(=O)C(C)(C)C,-2.04
18,Cc1cc(C(=O)Nc2ccc(Cl)c(Cl)c2)ccc1[N+](=O)[O-],-0.268
19,CC(=O)Nc1ccc(S(=O)(=O)Nc2nc3ccccc3nc2Nc2ccc(S(N)(=O)=O)cc2)cc1,-9.29
20,CCOc1ccc(CCNC(=O)c2ccc(CN3CC(=O)N4CCCCC4C3=O)cc2)cc1OCC (stereo not shown),6.08
21,CCCN(CCC)C(=O)C1C2CCC(O2)C1C(=O)O (stereo not shown),-4.6
22,CCn1cc(Cl)c(C(=O)Nc2nc3ccccc3n2CCN2CCCCC2)n1,1.35
23,CCCCNS(=O)(=O)c1cc(Br)cnc1N,2.32
24,CCCC1=C(C(=O)OCC)C(c2ccsc2)C(C#N)=C(N)O1 (stereo not shown),-0.261
25,CCNC(=S)N1CCN=C1Nc1nc(C)cc(C)n1,0.189

row,SMILES,% Inhibition @ 10 uM [%]
1,CCn1cc(C(=O)OC)c(=O)c2ccc(C)nc21,-8.24
2,O=C(NC1CCCCC1)N1CCC(Cc2ccccc2)CC1,5.81
3,C=CCNC(=O)c1cc2c(=O)n3cccc(C)c3nc2n(CC=C)c1=N,-7.08
4,CCS(=O)(=O)c1nc2ccccc2n1Cc1ccc(C(C)(C)C)cc1,1.72
5,COc1ccc(C(=O)NCc2nnc(SCC(=O)NCC3CCCO3)o2)cc1 (stereo not shown),8.26
6,CC/N=C1\SC(CC(=O)Nc2ccccc2OC(F)F)C(=O)N1CC (stereo not shown),-2.85
7,CN(Cc1ccco1)S(=O)(=O)c1csc(C(N)=O)c1,2.75
8,CN1CCN(c2ccc(NC(=O)C3CCCCC3C(=O)O)cc2)CC1 (stereo not shown),-4.63
9,Cc1ccc(C(=O)NCCCn2ccnc2)cn1,-5.85
10,N#CC1=C(N)Oc2c(oc(CO)cc2=O)C1c1ccccc1Cl (stereo not shown),0.746
11,CCc1ccc(N2CC(C(=O)NCc3ccccc3)CC2=O)cc1 (stereo not shown),5.04
12,Cc1cc(C)nc(NS(=O)(=O)c2ccc(NC(=S)NC(=O)c3ccco3)cc2)n1,1.7
13,O=S(=O)(Nc1ccccc1O)c1ccccc1,-3.72
14,CCn1c(C)c(C)c2cc(C(=O)NCc3cccnc3)ccc21,-2.83
15,Cc1ccc(CNC(=O)CSCc2cccc(F)c2)cc1,-0.406
16,c1ccc2c(c1)ncn2Cc1nnc2sc(-c3ccc4c(c3)OCO4)nn12,24.8
17,CCOc1cc(C2CC(=O)Nc3nc(SC)nc(O)c32)ccc1O (stereo not shown),3.84
18,CC1(C)CC(=O)C2=C(C1)OC1=C(C(=O)CC(C)(C)C1)C2c1cccc(OCC(=O)N2CCCCC2)c1,2.69
19,Cc1ccccc1OCC(=O)Nc1ccc(S(=O)(=O)NC(C)(C)C)cc1,-0.473
20,Cc1cc(C)n(-c2cc(-c3ccccc3)nc(N)n2)n1,1.04
21,CC(O)CSc1nc2c(c(=O)n(C)c(=O)n2C)n1CCCc1ccccc1 (stereo not shown),6.7
22,Cc1cc2nc(NCCO)n(CCOc3ccccc3)c2cc1C,-8.72
23,O=[N+]([O-])c1cc(Br)cc2c1[nH]c1ccc(Br)cc12,-4.87
24,COCCCNC(=O)c1ccc(CS(=O)c2cccc(Cl)c2)o1 (stereo not shown),5.66
25,Cc1cc(Cl)ccc1OCC(=O)NCc1ccccn1,0.389

row,SMILES,% Inhibition @ 10 uM [%]
1,Cc1nc(Cl)sc1C(=O)NC(C)c1ccc(Cl)cc1 (stereo not shown),-3.71
2,CC(C)(C)c1[nH]nc2c1C(c1ccc3ccccc3c1)C(C#N)=C(N)O2 (stereo not shown),-0.661
3,O=C(O)/C=C/C(=O)Nc1cccc(F)c1,4.22
4,Cc1nc2c(-c3ccc(F)cc3)c(C)nn2c(C)c1CCC(=O)NC1CCN(Cc2ccccc2)CC1,-0.465
5,O=C(O)C(Cc1ccccc1)NS(=O)(=O)c1ccc2nc(O)c(O)nc2c1 (stereo not shown),0.0539
6,O=C(CCN1C(=O)c2cccc3cccc(c23)C1=O)NC1CCCCC1,44.1
7,COc1cc(NC(=O)c2ccc([N+](=O)[O-])cc2)c(OC)cc1NC(C)=O,2.54
8,C=CCn1c(C(C)NC(=O)CC)nc2ccccc21 (stereo not shown),3.49
9,CCOc1ccc(-c2cc(CCCC(=O)NCCC(C)C)no2)cc1,-3.45
10,COc1cccc(CNCCO)c1OCc1ccc(F)cc1,-4.97
11,COc1cccc(Cn2c(C)c(CNCCC3=CCCCC3)c(C(=O)O)c2C)c1,14.1
12,COc1cc2nc(NCCc3ccc(Cl)cc3)n3nc(-c4cccnc4)nc3c2cc1OC,-2.42
13,ONC1=NC(/C=C/c2ccccc2)Nc2ccccc21 (stereo not shown),2.4
14,CCCN(CCO)Cc1c(Cl)cccc1Cl,4.28
15,CCC1CCCCN1CCCNC(=O)c1cc2c(s1)CSC2 (stereo not shown),-3.1
16,Nc1nonc1-c1noc(-c2cc(Br)ccc2OCc2ccccc2Cl)n1,-2.1
17,Nc1nc(-c2ccc([N+](=O)[O-])cc2)c(C(=O)Nc2ccccc2Cl)s1,4.42
18,Cc1ccc(C(=O)N/C(=C\c2ccco2)C(=O)NCC2CCCO2)cc1C (stereo not shown),5.67
19,CCn1c(C(=O)O)c(CNCc2ccc3c(c2)OCO3)c2ccc(C)cc21,-9.17
20,CCc1ccccc1NC(=O)C1CCN(S(C)(=O)=O)CC1,-1.21
21,Cn1cnnc1SCC(=O)n1c2c(c3ccccc31)CCCC2,5.23
22,c1ccc2c(c1)n(CCN1CCCCC1)c1ncnn21,1.72
23,Cc1cc(Cl)ccc1NC(=O)CN1CCN(CC/N=C/C2=C(O)CC(C)(C)CC2=O)CC1,-4.76
24,O=C1/C(=C\c2ccc(Br)cc2)S(=O)(=O)C(c2ccccc2)N1c1ccccc1 (stereo not shown),-2.77
25,CCC1=NN(C(=O)Cc2ccc(OC)c(OC)c2)C(O)(C(F)(F)F)C1 (stereo not shown),-2.94
